Hit rate of the full screen: of about 45,000 compounds, about 65 (0.1%) were called active. Calls follow the shape of the dose curve; as a rule, active = well fitted activation curve with a large enough effect; inconclusive = small, poorly fitted or top-dose-only effect; inactive = no such curve, though single readings can be large or run the other way. The list shows a part of the results.

The target in this test is Galactocerebrosidase (Homo sapiens) (UniProt P54803). Briefly: A Novel Cell-Based Assay to Identify Small Molecules for B -Galactocerebrosidase. Also: 0% is about no effect; nearly all actives have a fitted effect of over 65% in size. Conditions: 145M-Twi-hGALC-G270D cells (Twitcher mouse brain line with human GALC G270D), HMU-beta-Gal fluorescence, 48 h; series mostly up to 57.5 µM; activation: at the top concentration. The method, boiled down: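 Live 145M-Twi cells (Twitcher mouse brain-derived, GALC-null) stably expressing human GALC-G270D, with a wild-type GALC line, were compound-treated. Residual GALC activity was then read as fluorescence from 0.1 mM final HMU-β-gal at pH 5.2; higher signal means activation.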
UniProt P54803, sequence (P54803 whole entry, looked up): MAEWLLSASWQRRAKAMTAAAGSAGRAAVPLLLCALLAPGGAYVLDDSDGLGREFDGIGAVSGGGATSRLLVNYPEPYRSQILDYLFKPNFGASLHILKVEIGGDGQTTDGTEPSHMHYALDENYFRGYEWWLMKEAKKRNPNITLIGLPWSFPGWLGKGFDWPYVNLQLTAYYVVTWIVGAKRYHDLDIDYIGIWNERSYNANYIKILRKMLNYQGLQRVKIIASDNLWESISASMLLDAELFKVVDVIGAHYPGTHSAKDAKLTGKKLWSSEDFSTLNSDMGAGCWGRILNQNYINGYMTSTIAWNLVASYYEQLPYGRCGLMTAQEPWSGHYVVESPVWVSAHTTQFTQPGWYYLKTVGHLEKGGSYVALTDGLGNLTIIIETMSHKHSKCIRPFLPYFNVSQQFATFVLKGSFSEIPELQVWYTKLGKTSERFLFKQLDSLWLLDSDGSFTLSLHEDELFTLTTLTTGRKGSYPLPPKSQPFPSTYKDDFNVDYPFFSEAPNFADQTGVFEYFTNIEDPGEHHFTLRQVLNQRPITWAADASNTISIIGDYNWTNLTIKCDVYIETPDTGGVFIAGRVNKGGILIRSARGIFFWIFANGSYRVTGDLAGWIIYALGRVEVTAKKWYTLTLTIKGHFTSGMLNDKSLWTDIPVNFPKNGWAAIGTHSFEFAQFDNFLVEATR
Take `CCOc1ccc(C(=O)c2cn(Cc3ccccc3OC)c3cc4c(cc3c2=O)OCCO4)cc1`: the “activation” value is inactive: -11%.
The result for `CCC(=O)N1CCc2cc(S(=O)(=O)CCC(=O)Nc3ccc(Cl)c(C(F)(F)F)c3)ccc21` reads inactive: -5.7%.
The result for `CCCCN(CC)CCNC(=O)c1cn(CCOC)c(=O)c2c1c1ccccc1n2C` reads inactive: -6%.
With `COc1ccccc1N1CCN(C(=O)c2sc3nc4n(c(=O)c3c2C)CCC4)CC1` the figure was inactive: -15.8%; with `CCOC(=O)c1ccc(NC(=O)CSc2ccc(-c3sc(C)nc3C)nn2)cc1`, inactive: -17.8%.
Take `O=C(NC1CC(=O)N(c2cccc(F)c2)C1)c1ccc(S(=O)(=O)N2CCOCC2)cc1` (configuration not stated): the “activation” value is inactive: -7.86%.
The result for `Cc1ccc(NC(=O)Cn2c(=O)oc3ccccc32)cc1Cl` reads inactive: 0.533%; that for `COc1ccc(C(=O)c2oc3ccccc3c2NC(=O)c2ccc(F)cc2)cc1`, inactive: -26.7%.
With `O=C(c1cn(CCOc2ccccc2F)c2ccccc12)C1CCCCC1` the figure was inactive: -21.6%.
The result for `COc1ccc(Cn2ccc3nc(C)c(C(=O)N4CCN(c5ccccc5)CC4)cc3c2=O)cc1` reads inactive: -7.71%; that for `CCOC(=O)c1ccc(NC(=O)c2cn(-c3ccccc3)nc2-c2ccc(Br)cc2)cc1`, inactive: 11%.
For `CCc1nonc1NC(=O)c1oc2cc(C)c(Cl)cc2c1C`, the “activation” value was inactive: -0.552%.
For the compound `Cc1ccc(Nc2sc(C(=O)c3ccccc3)c(N)c2C(=O)NC(C)C)cc1`, the “activation” value is inactive: 10.5%.
The result for `Cc1cccc(Cn2cc(C(=O)c3ccccc3)c(=O)c3cc4c(cc32)OCO4)c1` reads inactive: -0.448%; that for `COc1ccc(NC(=O)CSc2oc(-c3cccs3)nc2S(=O)(=O)c2ccc(Br)cc2)c(OC)c1`, inactive: -12.6%; that for `CN/C(=C\[N+](=O)[O-])NCCSCc1ccc(CN(C)C)o1`, inactive: -16.3%.
The result for `CCOc1ccc(NS(=O)(=O)c2ccc(N)cc2)nn1` reads inactive: -5.42%.
With `O=C(CCn1cnc2ccccc2c1=O)NCc1ccccc1` the figure was inactive: -1.45%; with `Cc1ccc(N2CCN(C(=O)CCc3c(C)nc4c(c3C)c(=O)n(C)c(=O)n4C)CC2)c(C)c1`, inactive: -7.62%; with `COc1cccc(CNC(=O)c2cc(-c3cccc(OC)c3)n[nH]2)c1`, inactive: -13.2%.
Turning to `O=S(=O)(c1ccc2[nH]c3c(c2c1)CCCCC3)N1CCN(c2ccccc2)CC1`, the “activation” value is inactive: -15.4%.
Regarding `CCCSCCCNC(=O)CN1C(=O)COc2ccc(S(=O)(=O)N3CCC(C)CC3)cc21`, the “activation” value was inactive: -10.3%.
With `Cc1cccc(C)c1NC(=O)c1oc2c(c1C)-c1nn(Cc3ccccc3)cc1CC2` the figure was inactive: -15.8%; with `COc1cc(OC)c(N(C)C(=O)c2nn(C)c3c2CSc2ccccc2-3)cc1Cl`, inactive: -9.06%.
With `CCN(CC)CCCNC(=O)Cn1nc(N2CCN(c3ccccc3OC)CC2)ccc1=O` the figure was inactive: 4.5%.
With `CN1C(=O)Cc2cc(S(=O)(=O)CCC(=O)Nc3ccccc3)ccc21`, the “activation” value is inactive: -7.28%.
With `CC(=O)C1=C(c2ccc(Cl)c(Cl)c2)N(C(C)=O)n2c(C)nnc2S1` the figure was inactive: -11.2%.
The result for `CCCCOc1ccc(S(=O)(=O)N2CCN(c3ccccc3OCC)CC2)cc1` reads inactive: -8.73%.
In the case of `COc1ccc(Cl)cc1NC(=O)CN(C)S(=O)(=O)c1ccc(Br)s1`, the “activation” value was inactive: -9.33%.
With `Cc1nc2c(C(=O)N(C)Cc3ccccc3)c[nH]n2c(=O)c1Cc1ccc(Cl)cc1`, the “activation” value was inactive: 2.31%.
In the case of `Cc1ccc(Cl)cc1N1CCN(C(=O)c2ccc3c(c2)N(Cc2ccccc2F)C(=O)c2ccccc2S3(=O)=O)CC1`, the “activation” value is inactive: -12.9%.
As for `CCOc1ccccc1NC(=O)c1sc(-n2nc(C)c(CCC(C)C)c2C)nc1C`, the “activation” value is inactive: -15.4%.
With `O=C(NCC(c1ccccc1)c1ccccc1)c1nn(-c2ccccc2Cl)nc1CO` the figure was inactive: -4.54%; with `C#CCN[C@@H]1CCc2ccccc21`, inactive: -10.8%.
With `O=C(Nc1cccc(Cl)c1)Nc1ccccc1OCc1cc(=O)n2ccccc2n1` the figure was inactive: -6.27%.
With `Cc1cc(C)c2oc(-c3cccc(NC(=O)c4ccco4)c3)nc2c1` the figure was inactive: 11.4%; with `CCC1CCCCN1CCCNC(=O)CN1C(=O)CSc2ccc(S(=O)(=O)N3CCC(C)CC3)cc21` (configuration not stated), inactive: -22.2%.
For the compound `Cc1cc2c(c3oc(=O)c4ccccc4c13)CN(Cc1ccc(F)cc1)CO2`, the “activation” value was inactive: -21.4%.
The result for `COCCCNC(=O)CCC(=O)N1Cc2ccccc2Oc2ncccc21` reads inactive: 8.02%.
Consider `COc1cccc(C(=O)Nc2c(C(=O)NC(C)(C)C)oc3ccccc23)c1`, for which the “activation” value is inactive: -14.6%.
For `Cc1ccc(CCNC(=O)Cn2c(-c3cccs3)cc3cc(F)ccc32)cc1`, the “activation” value is inactive: -9.87%.
The result for `CCc1cccc2sc(N3CCN(C(=O)c4cc5ccccc5cc4OC)CC3)nc12` reads inactive: -42.6%; that for `Cc1ccc(CNC(=O)CN(c2ccc(Cl)cc2Cl)S(=O)(=O)c2ccccc2)cc1`, inactive: -9.62%.
With `Cc1ccc(CNC(=O)Cn2ccn(-c3ccc(C)c(C)c3)c(=O)c2=O)cc1` the figure was inactive: -4.66%.
With `CN(C)c1ccc(CNC(=O)CN(C)S(=O)(=O)c2ccc3c(c2)c(=O)n(C)c(=O)n3C)cc1` the figure was inactive: -15.3%.
As for `C1COC(NC(C2CC2)C2CC2)=N1`, the “activation” value was inactive: -19.6%.
With `Cc1ccc(-n2nc3c(N4CCCC(C(=O)NCCc5ccccc5)C4)nnc(C)c3c2C)cc1` (configuration not stated) the figure was inactive: -8.01%.
With `O=C(Cn1ncc2c(=O)oc3ccccc3c21)NCc1ccccc1Cl` the figure was inactive: -0.548%.
With `COc1ccc(CC(=O)NCc2ccc3c(c2)CCN3C(=O)c2ccc(C)cc2)cc1OC` the figure was inactive: -46.1%; with `CCc1cccc(NC(=O)Cn2c(=O)n(CCc3ccc(OC)c(OC)c3)c(=O)c3ccccc32)c1`, inactive: 4.16%.
In the case of `COc1cccc(CNC(=O)CSc2c3c(nc4ccc(Cl)cc24)CCCC3)c1OC`, the “activation” value was inactive: -8.69%.
With `O=C(Cn1ncc2c3ccccc3n(Cc3ccccc3F)c2c1=O)NCCc1ccc(Cl)cc1` the figure was inactive: 0.999%.
The result for `CCOC(=O)c1c(C)[nH]c(C)c1S(=O)(=O)N1CCCC(C(=O)Nc2ccc(OC)c(Cl)c2)C1` (configuration not stated) reads inactive: -9.36%.
With `Cc1ccccc1Nc1nnc(-c2ccc(C)c(S(=O)(=O)N3CCOCC3)c2)c2ccccc12` the figure was inactive: -17.7%; with `COc1ccc(OC)c(NC(=O)Cn2cnc3c(oc4ccccc43)c2=O)c1`, inactive: -4.92%.
Turning to `Cc1cccc(N2CCN(C(=O)C3CCN(S(=O)(=O)c4cccs4)CC3)CC2)c1C`, the “activation” value was inactive: -25.8%.
The result for `COc1ccc(CN2COc3ccc4c(-c5ccccc5)cc(=O)oc4c3C2)cc1` reads inactive: -25.3%; that for `CC1=C(C(=O)Nc2ccc(C)cc2C)C(c2ccc(Cl)cc2)n2nc(C(=O)OC(C)C)nc2N1` (configuration not stated), inactive: -12.3%; that for `CCc1ccc(NC(=O)c2cc3sc(Cl)cc3n2C)cc1`, inactive: -6.19%.
The result for `O=C(Cn1cnc(S(=O)(=O)N2CCCC2)c1)Nc1ccc(OC(F)(F)F)cc1` reads inactive: -25.7%; that for `Cc1ccc(C)c(CN2C(=O)c3ccccc3S(=O)c3ccc(C(=O)NCc4ccco4)cc32)c1` (configuration not stated), inactive: -17%.
With `Cc1ccc(NC(=O)Cn2c(=O)n(CCc3ccccc3)c(=O)c3c4c(sc32)CCCC4)cc1C` the figure was inactive: -3.17%; with `Cc1cc(C)c(S(=O)(=O)Nc2cccc(-c3cn4ccccc4n3)c2)c(C)c1`, inactive: -7.18%; with `Cc1ccc(NC(=O)Cn2cc(S(=O)(=O)NC(C)C)c(S(=O)(=O)NC(C)C)c2)cc1Cl`, inactive: -10.8%.
As to `COc1ccc(Cn2ccc3nc(C)c(C(=O)Nc4ccc(OC)cc4OC)cc3c2=O)cc1`, the “activation” value is inactive: -25.8%.
The result for `O=C1Nc2cc(Cl)ccc2Oc2cc(Oc3ccccc3)ccc21` reads inactive: -6.98%; that for `Cc1c(Cl)cccc1NC(=O)CSc1cc(-c2ccccc2)ncn1`, inactive: -2.15%; that for `Cc1ccc(NC(=O)C2CCN(c3nn4c(=O)cc(C)nc4s3)CC2)cc1`, inactive: -13%.
With `O=C(/C=C/c1ccco1)Nc1ccc(Cl)c(-c2nc3cc(Cl)ccc3o2)c1` the figure was inactive: -16.6%; with `COc1cccc(NC(=O)c2ccc(CNS(=O)(=O)c3ccc4c(c3)C(C)(C)C(=O)N4C)cc2)c1`, inactive: -10.5%.
The result for `Cc1ccc(-c2nnc(Nc3ccc(O)cc3)c3ccccc23)cc1S(=O)(=O)NCC1CCCO1` (configuration not stated) reads inactive: -9.24%.
With `CC(C)n1c(=O)c2oc3ccccc3c2n(Cc2ccccc2F)c1=O`, the “activation” value was inactive: -8.62%.
With `COC(=O)c1c(SCC(=O)Nc2ccccc2OC)[nH]c2ccccc2c1=O`, the “activation” value is inactive: -11.8%.
As for `Cc1cc2ccccc2n1-c1ccc(C(=O)N2CCC(C(=O)NCc3ccc(F)cc3)CC2)s1`, the “activation” value was inactive: -16%.
As to `COc1ccc(Oc2nc3c(c(=O)n(Cc4ccccc4Cl)c(=O)n3C)n2C)cc1`, the “activation” value was inactive: -21.9%.
The result for `O=C(C1CC1)N1CCc2cc(Br)cc(S(=O)(=O)N3CCN(c4ccccc4F)CC3)c21` reads inactive: -2.27%; that for `COc1ccc(CNC(=O)Cn2ccc3cc(S(=O)(=O)N4CCCCCC4)ccc32)c(OC)c1`, inactive: -7.26%; that for `Cc1ccc(N2CC(NC(=O)/C=C\c3ccc4c(c3)OCO4)CC2=O)cc1` (configuration not stated), inactive: -7.49%.
Regarding `Cc1ccc(CCNC(=O)c2ccc(CSCc3ccc(C)cc3)o2)cc1`, the “activation” value is inactive: -26.4%.
The result for `CCOC(=O)c1ccc(NC(=O)c2cc3c(n(-c4ccc(C)cc4)c2=O)CC(C)(C)CC3=O)cc1` reads inactive: 18%; that for `Cn1c(C(=O)N2CCC(C(=O)NCCc3ccc(S(N)(=O)=O)cc3)CC2)cc2sccc21`, inactive: -4.34%; that for `COc1ccc(-c2nc3scc(CCNS(=O)(=O)c4cccc(C(C)=O)c4)n3n2)cc1`, inactive: -1.86%.
With `O=c1cc(CO)occ1O` the figure was inactive: -14.7%; with `CN(C)c1cccc(C(=O)Nc2ccc(-c3nc4ccccc4s3)cc2)c1`, inactive: -21.4%; with `CC1=C(c2ccc(Cl)cc2)S(=O)(=O)NC1=NCc1ccc(C)cc1`, inactive: -10.9%.
With `O=C(CSc1nc2c(oc3ccccc32)c(=O)[nH]1)Nc1cccc(Cl)c1` the figure was inactive: 6.74%; with `CCOC(=O)c1cccc(NC(=O)CCNS(=O)(=O)c2cccc3nonc23)c1`, inactive: -12.3%.
Regarding `CC12CN3CC(C)(CN(C1)C3c1ccc(OCc3ccccc3)cc1)C2=O` (configuration not stated), the “activation” value was inactive: -5.24%.
With `CCc1ccc(NC(=O)Cn2c(=O)ccc3cc(S(=O)(=O)N4CCCC4)ccc32)cc1` the figure was inactive: -11.4%.
The result for `Cc1ccc(NC(=O)CSc2nnc(C)c(=O)[nH]2)cc1` reads inactive: 4.16%; that for `Cc1cccc(-n2ncc3c(Nc4c(C)cc(C)cc4C)ncnc32)c1`, inactive: -15.8%; that for `CCOCCCn1c(=N)c(C(=O)NC2CCCC2)cc2c(=O)n3cccc(C)c3nc21`, inactive: -6.41%.
The result for `Cc1nnc2c3ccccc3nc(N3CCN(c4cccc(Cl)c4)CC3)n12` reads inactive: 0.995%; that for `Oc1ccc(Nc2nc(-c3ccc(Cl)cc3)nc3ccccc23)cc1`, inactive: -13.7%; that for `Cc1noc(Cn2c(=O)c3ccccc3n(CC(=O)Nc3ccccc3C(F)(F)F)c2=O)n1`, inactive: -13%.
On to `CCOC(=O)c1cccc(Nc2cc(C)nc(C)n2)c1`, for which the “activation” value is inactive: -16.8%.
With `CCc1ccc(NC(=O)c2oc3c(c2C)-c2[nH]ncc2CC3)cc1` the figure was inactive: -8.98%.

Values taken from PubChem BioAssay AID1159614 (National Center for Advancing Translational Sciences (NCATS), 2016).
